Assay results from publication PMC8053108 (Nucleic Acids Research, 2021).

Biological target: T1, RPA2 winged-helix domain (RPA2 residues 172–270) (human, UniProt P15927 172-270, MTSL spin label at C219 (in the PRE NMR experiment only))
T1 construct: human RPA2, C-terminal winged-helix domain, residues 172–270; Unlabelled in the uracil excision assays; also called RPA2-WH; WH domain; source: expressed as RPA2-WH-intein fusion (pTYB12) in ZYP-5052 autoinduction medium at 16°C, WH domain purified
Assay: paramagnetic relaxation enhancement (PRE) NMR; 15N-labelled UNG2 (1–93) with 1.5 molar excess of RPA2-WH MTSL-labelled at C219, before and after ascorbic acid; 25°C; 20 mM phosphate buffer pH 7.0, 10 mM NaCl, H2O/D2O 9:1
Conditions: both partners purified

T1 sequence (P15927 172-270): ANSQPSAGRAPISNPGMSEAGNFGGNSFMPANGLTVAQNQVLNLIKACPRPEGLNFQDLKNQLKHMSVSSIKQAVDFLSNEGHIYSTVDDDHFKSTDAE

B1: 15N-labelled UNG2 N-terminal region ([…]) (domain or fragment)
chain: not shown
modifications: uniformly 15N-labelled
notes: human uracil-DNA glycosylase, nuclear isoform UNG2, N-terminal regulatory region, […]; also called N-terminal UNG2; UNG2 N-terminal ([…])
binding result: binds
